Test results taken from the supplement of paper PMC10369915.
The list shows a part of the results. Cut-off read from the data, not from the text of the source: active = 3.2 or more and inactive = the rest. The signal is at background level for most entries.

Key:
Test in all cases: enrichment score (SH2-bound / input frequency) (ratio); bacterial display of known human phosphotyrosine sites (pTyr-Var adds point mutants) read by sequencing; higher = stronger binding; tyrosines were phosphorylated by kinases first
Conditions in all cases: peptide library: pTyr-Var
SHP2 C-SH2 domain E139D = biological target: SHP2 C-SH2 domain E139D
[1] = biological target: SHP2 C-SH2 domain wild-type
SHP2 N-SH2 domain L43F = biological target: SHP2 N-SH2 domain L43F
SHP2 N-SH2 domain T42A = biological target: SHP2 N-SH2 domain T42A
SHP2 N-SH2 domain T52S = biological target: SHP2 N-SH2 domain T52S
[2] = biological target: SHP2 N-SH2 domain wild-type

Measured: enrichment score
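Note: displayed peptides selected on beads carrying the immobilized SH2 domain, with library peptides lacking any tyrosine serving as negative controls.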

B1: PGM1_Y66_D62H (peptide)
chain: GHGRFYMKEAI
inactive: SHP2 C-SH2 domain E139D 2.51 | [1] 2.06 | SHP2 N-SH2 domain L43F 2.13 | SHP2 N-SH2 domain T42A 2.14 | SHP2 N-SH2 domain T52S 2.03 | [2] 1.6

B2: PDGFRB_Y589_P584R (peptide)
chain: RMQLPYDSTWE
inactive: SHP2 C-SH2 domain E139D 0.79 | [1] 0.679 | SHP2 N-SH2 domain L43F 1.16 | SHP2 N-SH2 domain T42A 0.766 | SHP2 N-SH2 domain T52S 0.681 | [2] 1.42

B3: PGM5_Y358 (peptide)
chain: MKVPVYETPAG
inactive: SHP2 C-SH2 domain E139D 0.83 | [1] 0.827 | SHP2 N-SH2 domain L43F 0.939 | SHP2 N-SH2 domain T42A 0.903 | SHP2 N-SH2 domain T52S 0.736 | [2] 0.917

B4: PDGFRB_Y581_P584R (peptide)
chain: GHEYIYVDRMQ
inactive: SHP2 C-SH2 domain E139D 1.18 | [1] 0.993 | SHP2 N-SH2 domain L43F 1.1 | SHP2 N-SH2 domain T42A 0.852 | SHP2 N-SH2 domain T52S 1.06 | [2] 0.959

B5: PGM1_Y521_L516P (peptide)
chain: PYIDSYEKDVA
inactive: SHP2 C-SH2 domain E139D 0.675 | [1] 0.6 | SHP2 N-SH2 domain L43F 0.51 | SHP2 N-SH2 domain T42A 0.607 | SHP2 N-SH2 domain T52S 0.546 | [2] 0.489

B6: PDK1_Y136_A134T (peptide)
chain: DAKTIYDFTDT
inactive: SHP2 C-SH2 domain E139D 0.691 | [1] 0.859 | SHP2 N-SH2 domain L43F 0.75 | SHP2 N-SH2 domain T42A 0.651 | SHP2 N-SH2 domain T52S 0.598 | [2] 0.731

B7: PFKFB3_Y194_S197R (peptide)
chain: KRISCYEARYQ
inactive: SHP2 C-SH2 domain E139D 0.909 | [1] 1.2 | SHP2 N-SH2 domain L43F 0.862 | SHP2 N-SH2 domain T42A 0.828 | SHP2 N-SH2 domain T52S 0.735 | [2] 1.12

B8: PDGFRB_Y716 (peptide)
chain: PSAELYSNALP
inactive: SHP2 C-SH2 domain E139D 0.535 | [1] 0.818 | SHP2 N-SH2 domain L43F 0.665 | SHP2 N-SH2 domain T42A 0.645 | SHP2 N-SH2 domain T52S 0.853 | [2] 0.953

B9: PDPR_Y109 (peptide)
chain: YSNKLYYQLEQ
inactive: SHP2 C-SH2 domain E139D 0.891 | [1] 1.01 | SHP2 N-SH2 domain L43F 0.673 | SHP2 N-SH2 domain T42A 0.86 | SHP2 N-SH2 domain T52S 0.941 | [2] 0.821

B10: PDHA1_Y243_YF (peptide)
chain: ASTDFYKRGDF
inactive: SHP2 C-SH2 domain E139D 0.47 | [1] 0.51 | SHP2 N-SH2 domain L43F 0.473 | SHP2 N-SH2 domain T42A 0.46 | SHP2 N-SH2 domain T52S 0.507 | [2] 0.527

B11: PDHA1_Y301_R302H (peptide)
chain: DPGVSYHTREE
inactive: SHP2 C-SH2 domain E139D 0.605 | [1] 0.442 | SHP2 N-SH2 domain L43F 0.389 | SHP2 N-SH2 domain T42A 0.51 | SHP2 N-SH2 domain T52S 0.698 | [2] 0.462

B12: PEAK1_Y616 (peptide)
chain: HDEPTYARSSK
inactive: SHP2 C-SH2 domain E139D 0.333 | [1] 0.322 | SHP2 N-SH2 domain L43F 0.308 | SHP2 N-SH2 domain T42A 0.295 | SHP2 N-SH2 domain T52S 0.308 | [2] 0.339

B13: PDK3_Y337 (peptide)
chain: RLYARYFQGDL
inactive: SHP2 C-SH2 domain E139D 0.675 | [1] 0.579 | SHP2 N-SH2 domain L43F 0.587 | SHP2 N-SH2 domain T42A 0.479 | SHP2 N-SH2 domain T52S 0.507 | [2] 0.517

B14: PGAM2_Y92_G97D (peptide)
chain: LNERHYGGLTD
inactive: SHP2 C-SH2 domain E139D 0.64 | [1] 0.783 | SHP2 N-SH2 domain L43F 0.855 | SHP2 N-SH2 domain T42A 0.492 | SHP2 N-SH2 domain T52S 0.749 | [2] 0.704

B15: PGAM4_Y92_R90Q (peptide)
chain: LNEQHYGGLTG
inactive: SHP2 C-SH2 domain E139D 0.619 | [1] 0.334 | SHP2 N-SH2 domain L43F 0.47 | SHP2 N-SH2 domain T42A 0.427 | SHP2 N-SH2 domain T52S 0.601 | [2] 0.427

B16: PDHA1_Y118 (peptide)
chain: HLITAYRAHGF
inactive: SHP2 C-SH2 domain E139D 0.834 | [1] 0.71 | SHP2 N-SH2 domain L43F 0.565 | SHP2 N-SH2 domain T42A 0.538 | SHP2 N-SH2 domain T52S 0.572 | [2] 0.796

B17: PGAM2_Y92 (peptide)
chain: LNERHYGGLTG
inactive: SHP2 C-SH2 domain E139D 0.788 | [1] 0.752 | SHP2 N-SH2 domain L43F 0.817 | SHP2 N-SH2 domain T42A 0.557 | SHP2 N-SH2 domain T52S 0.717 | [2] 0.698

B18: PDPR_Y104 (peptide)
chain: QKMADYSNKLY
inactive: SHP2 C-SH2 domain E139D 0.827 | [1] 0.695 | SHP2 N-SH2 domain L43F 0.686 | SHP2 N-SH2 domain T42A 0.669 | SHP2 N-SH2 domain T52S 0.823 | [2] 0.584

B19: PDHA1_Y301 (peptide)
chain: DPGVSYRTREE
inactive: SHP2 C-SH2 domain E139D 0.451 | [1] 0.24 | SHP2 N-SH2 domain L43F 0.421 | SHP2 N-SH2 domain T42A 0.345 | SHP2 N-SH2 domain T52S 0.368 | [2] 0.514

B20: PEAR1_Y890_YF (peptide)
chain: RLDRSYSFSFS
inactive: SHP2 C-SH2 domain E139D 0.585 | [1] 0.517 | SHP2 N-SH2 domain L43F 0.378 | SHP2 N-SH2 domain T42A 0.447 | SHP2 N-SH2 domain T52S 0.441 | [2] 0.501

B21: PDGFRB_Y716_N718Y_YF (peptide)
chain: PSAELYSFALP
inactive: SHP2 C-SH2 domain E139D 0.851 | [1] 0.789 | SHP2 N-SH2 domain L43F 0.74 | SHP2 N-SH2 domain T42A 0.7 | SHP2 N-SH2 domain T52S 0.844 | [2] 0.702

B22: PGK1_Y161 (peptide)
chain: KLGDVYVNDAF
inactive: SHP2 C-SH2 domain E139D 0.852 | [1] 0.792 | SHP2 N-SH2 domain L43F 0.985 | SHP2 N-SH2 domain T42A 0.693 | SHP2 N-SH2 domain T52S 0.894 | [2] 1.03

B23: PGM1_Y521 (peptide)
chain: LYIDSYEKDVA
inactive: SHP2 C-SH2 domain E139D 1 | [1] 0.992 | SHP2 N-SH2 domain L43F 1.06 | SHP2 N-SH2 domain T42A 0.677 | SHP2 N-SH2 domain T52S 0.865 | [2] 0.559

B24: PDPK1_Y9_V12M (peptide)
chain: TTSQLYDAMPI
inactive: SHP2 C-SH2 domain E139D 0.778 | [1] 0.654 | SHP2 N-SH2 domain L43F 0.941 | SHP2 N-SH2 domain T42A 0.537 | SHP2 N-SH2 domain T52S 0.574 | [2] 0.917

B25: PFKM_Y103_R100Q (peptide)
chain: RLQAAYNLVKR
inactive: SHP2 C-SH2 domain E139D 1.93 | [1] 1.87 | SHP2 N-SH2 domain L43F 1.97 | SHP2 N-SH2 domain T42A 1.66 | SHP2 N-SH2 domain T52S 1.66 | [2] 1.57

B26: PDPR_Y109_Y109H_YF (peptide)
chain: FSNKLHFQLEQ
inactive: SHP2 C-SH2 domain E139D 1.33 | [1] 1.16 | SHP2 N-SH2 domain L43F 1.08 | SHP2 N-SH2 domain T42A 1.16 | SHP2 N-SH2 domain T52S 0.776 | [2] 0.931

B27: PFAS_Y538_A535V (peptide)
chain: AGVIIYTSRFQ
inactive: SHP2 C-SH2 domain E139D 0.687 | [1] 0.663 | SHP2 N-SH2 domain L43F 0.67 | SHP2 N-SH2 domain T42A 0.657 | SHP2 N-SH2 domain T52S 0.648 | [2] 0.83

B28: PDGFRB_Y581_P584R_YF (peptide)
chain: GHEFIYVDRMQ
inactive: SHP2 C-SH2 domain E139D 0.946 | [1] 0.956 | SHP2 N-SH2 domain L43F 0.941 | SHP2 N-SH2 domain T42A 0.847 | SHP2 N-SH2 domain T52S 1.01 | [2] 0.721

B29: PGAM2_Y92_R90W (peptide)
chain: LNEWHYGGLTG
inactive: SHP2 C-SH2 domain E139D 1.61 | [1] 1.15 | SHP2 N-SH2 domain L43F 1.13 | SHP2 N-SH2 domain T42A 0.981 | SHP2 N-SH2 domain T52S 1.18 | [2] 1.32

B30: PDHA1_Y118_H113D (peptide)
chain: DLITAYRAHGF
inactive: SHP2 C-SH2 domain E139D 0.724 | [1] 0.678 | SHP2 N-SH2 domain L43F 0.622 | SHP2 N-SH2 domain T42A 0.637 | SHP2 N-SH2 domain T52S 0.665 | [2] 0.71

B31: PES1_Y265_T264S (peptide)
chain: AGEGSYALDSE
inactive: SHP2 C-SH2 domain E139D 0.606 | [1] 0.257 | SHP2 N-SH2 domain L43F 0.483 | SHP2 N-SH2 domain T42A 0.246 | SHP2 N-SH2 domain T52S 0.429 | [2] 0.649

B32: PDK3_Y337_Y334S (peptide)
chain: RLSARYFQGDL
inactive: SHP2 C-SH2 domain E139D 0.725 | [1] 0.851 | SHP2 N-SH2 domain L43F 0.795 | SHP2 N-SH2 domain T42A 0.587 | SHP2 N-SH2 domain T52S 0.571 | [2] 0.741

B33: PDHA1_Y227 (peptide)
chain: CENNRYGMGTS
inactive: SHP2 C-SH2 domain E139D 0.779 | [1] 0.964 | SHP2 N-SH2 domain L43F 0.791 | SHP2 N-SH2 domain T42A 0.691 | SHP2 N-SH2 domain T52S 0.704 | [2] 1.09

B34: PDK1_Y136 (peptide)
chain: DAKAIYDFTDT
inactive: SHP2 C-SH2 domain E139D 0.816 | [1] 0.654 | SHP2 N-SH2 domain L43F 1.59 | SHP2 N-SH2 domain T42A 0.658 | SHP2 N-SH2 domain T52S 0.656 | [2] 0.795

B35: PEAR1_Y890_R885H (peptide)
chain: HLDRSYSYSYS
inactive: SHP2 C-SH2 domain E139D 0.589 | [1] 0.636 | SHP2 N-SH2 domain L43F 0.545 | SHP2 N-SH2 domain T42A 0.572 | SHP2 N-SH2 domain T52S 0.446 | [2] 0.642

B36: PDHA1_Y289_H292L_YF (peptide)
chain: LQTFRYHGLSM
inactive: SHP2 C-SH2 domain E139D 0.989 | [1] 0.787 | SHP2 N-SH2 domain L43F 0.722 | SHP2 N-SH2 domain T42A 0.736 | SHP2 N-SH2 domain T52S 0.828 | [2] 0.929

B37: PDHA1_Y289_YF (peptide)
chain: LQTFRYHGHSM
inactive: SHP2 C-SH2 domain E139D 1.23 | [1] 1.04 | SHP2 N-SH2 domain L43F 1.09 | SHP2 N-SH2 domain T42A 0.85 | SHP2 N-SH2 domain T52S 1.27 | [2] 0.992
